# Whole data set: some 33,000 sequences, median “E-score (-0.5 to 0.5)” near -0.043, cut for the highest 2% near 0.37. Some of the results follow.
# Target: T1, Upc2 (UniProt Q12151)
# T1 sequence: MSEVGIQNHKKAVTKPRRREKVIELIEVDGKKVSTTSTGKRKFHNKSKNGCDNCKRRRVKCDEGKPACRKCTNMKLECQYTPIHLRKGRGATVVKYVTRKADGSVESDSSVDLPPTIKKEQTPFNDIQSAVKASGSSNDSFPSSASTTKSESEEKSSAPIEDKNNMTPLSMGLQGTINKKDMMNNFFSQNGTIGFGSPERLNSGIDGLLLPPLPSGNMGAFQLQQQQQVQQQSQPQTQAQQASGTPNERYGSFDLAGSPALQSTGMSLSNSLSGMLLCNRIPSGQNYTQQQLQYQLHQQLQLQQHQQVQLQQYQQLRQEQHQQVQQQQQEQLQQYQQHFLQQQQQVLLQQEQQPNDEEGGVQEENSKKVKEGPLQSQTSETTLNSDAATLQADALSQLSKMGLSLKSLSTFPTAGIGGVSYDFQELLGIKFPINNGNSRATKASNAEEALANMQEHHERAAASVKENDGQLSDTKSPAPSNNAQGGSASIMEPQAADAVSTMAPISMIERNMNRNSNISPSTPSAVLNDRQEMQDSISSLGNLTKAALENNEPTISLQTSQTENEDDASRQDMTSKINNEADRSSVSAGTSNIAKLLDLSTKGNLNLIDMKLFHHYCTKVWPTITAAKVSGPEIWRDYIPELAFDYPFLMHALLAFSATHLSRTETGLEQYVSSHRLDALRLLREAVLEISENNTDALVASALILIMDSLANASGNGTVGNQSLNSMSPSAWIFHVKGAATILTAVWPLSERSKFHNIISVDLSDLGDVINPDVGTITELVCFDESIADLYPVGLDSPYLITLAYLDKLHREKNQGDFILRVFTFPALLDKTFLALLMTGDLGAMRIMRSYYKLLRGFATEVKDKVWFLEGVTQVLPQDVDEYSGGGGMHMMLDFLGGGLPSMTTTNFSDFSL
# Assay: PBM E-score (8-mer binding enrichment) (E-score (-0.5 to 0.5)); higher = stronger / more preferred TF binding; most listed sequences are background and not binding sites
# Conditions: protein concentration: 200 nM; construct: GST-full length
# Method in brief: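 Full-length yeast transcription factors or their DNA-binding domains, GST-tagged and expressed with PURExpress, were applied at about 100-200 nM to universal all-10-mer Agilent arrays. These arrays had been made double-stranded by primer extension on fresh or once-stripped slides. Detection used fluorescent anti-GST, normalisation used masliner, and E-scores for ungapped eight-base words pooled with reverse complements came from the Universal PBM Analysis Suite.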
row,Sequence,PBM E-score
1,ATGCACCG,-0.146
2,AAAGAATT,-0.0689
3,CTAAGGCA,-0.252
4,ACACGCGC,-0.0822
5,AATCGTAG,0.241
6,CGTCCCAC,-0.0799
7,CCTCGCTC,0.31
8,TGGTTCAA,0.018
9,ACGTGACT,-0.0376
10,CCTAGCAA,-0.244
11,GACACGAC,0.16
12,CAAAGAGG,-0.306
13,GATTCATA,-0.0732
14,AATCGACT,-0.0529
15,CAATAGCC,-0.128
16,CTAGGAGC,-0.192
17,GCCCCCAA,-0.238
18,ACATTGGT,-0.232
19,GGTAGAAC,-0.0156
20,ACTATAAG,0.219
21,GAGGTGGC,-0.22
22,CGACCGCA,0.174
23,AATGACTA,-0.0693
24,AAGATGAT,-0.0179
25,ATGTGGGG,-0.142

row,Sequence,PBM E-score
1,AGCTGTAG,-0.2
2,CTCCCGTA,0.333
3,AGCCGAAA,-0.0413
4,CGCTGACA,-0.232
5,GGCTTGCA,-0.13
6,GTGCTAAC,-0.0899
7,AATTTACC,0.117
8,TGGATTAA,-0.162
9,ACATAGAG,-0.149
10,CAGGAAGA,-0.252
11,ACGTCTGA,0.0587
12,ACAATGCT,-0.119
13,CTGACACC,-0.236
14,ACGGACCA,0.213
15,ATCATATA,0.0507
16,CCACAATC,-0.132
17,CTCCTATA,-0.0688
18,CGTGCCTC,0.0474
19,GAACTGAA,0.179
20,TAAGGACA,0.0801
21,GCACTTAC,-0.0833
22,AGTCCGGC,-0.204
23,CCAACTGA,-0.0746
24,CGTCATAA,0.0582
25,AAACATGT,0.0475

row,Sequence,PBM E-score
1,AAATCCAC,-0.112
2,GTTGCACA,-0.0557
3,CAAAATTA,0.0503
4,CCCCAAGG,-0.378
5,CTGCTTCA,-0.325
6,ACGGAATA,0.0564
7,ACGCCGGA,0.0844
8,CCCGTCGC,0.0724
9,AAACACCC,-0.0301
10,ATTCACAG,-0.0954
11,ATGAGAGG,-0.213
12,AGCCCGTA,0.321
13,ACGAAGAA,0.343
14,AGAGCTTG,-0.0473
15,GTACGATA,0.445
16,AACGTTTA,0.359
17,GCCACTCC,0.00823
18,CCCGTCGA,-0.024
19,GATAAAAA,-0.0128
20,AAAGTGTC,-0.00791
21,ACTATGGA,-0.0797
22,AGACTTTG,-0.0679
23,AGGGGGGG,-0.318
24,ACTGCTAG,-0.233
25,AATTTTGA,0.111

row,Sequence,PBM E-score
1,GATCAGTA,0.14
2,CCAAGGAA,-0.158
3,CGAATGAA,0.117
4,CTTTTGCC,-0.115
5,GGACAGCA,-0.173
6,ATTTCCTG,-0.0945
7,GAGACCCC,-0.187
8,ATTTTTTC,0.0622
9,ATATACTG,0.0777
10,AGGCAAGC,-0.129
11,CCAAGTAG,-0.168
12,CCTGGTCG,0.101
13,CGAGATTC,0.177
14,CGTCCCTA,-0.125
15,CTGGCTGC,-0.15
16,CATGATAC,0.147
17,GACACGCA,0.0514
18,ACTAAAAG,0.0931
19,GCTAGATA,-0.0359
20,GCAGAAAC,0.103
21,AGATCGCG,0.0663
22,AAGTTACG,0.326
23,CGAGAACC,0.189
24,CCCCTAGG,-0.322
25,GAGAGCAC,0.0218

row,Sequence,PBM E-score
1,GACAGTAC,0.0726
2,GTATGGTA,0.226
3,TATAGTCA,0.176
4,CCAGACTC,-0.0319
5,AAGCTGAG,-0.268
6,CTAAGAGA,-0.0721
7,TCAAAGGA,-0.248
8,CGCAATGC,-0.132
9,ACCACAGT,-0.0661
10,ATGTTATG,-0.0281
11,GAATCTAC,0.00921
12,CTTAGTTC,0.133
13,ACCGTTCT,0.0432
14,AAGACGGC,-0.199
15,GAGTGCAA,0.145
16,ATTGTAAC,-0.0177
17,CCAGGACG,-0.153
18,GCAGGTCC,-0.202
19,CCACGAAC,0.155
20,ACATGACG,-0.0379
21,GTAGATAC,0.0397
22,CACCACTA,0.126
23,CAGGACCC,-0.349
24,CGCAGTGA,0.0212
25,ACAGCATC,-0.0918

row,Sequence,PBM E-score
1,AATGAGGA,-0.135
2,CTTGCAAG,0.0207
3,ATAGCGTA,0.227
4,ATATGTTA,-0.0719
5,TACCCTGA,-0.0732
6,CTGACGAC,-0.0518
7,ATGGGAAG,-0.251
8,AACTTGTG,0.0183
9,AGAATCTA,-0.0406
10,CGTCCAAA,0.0867
11,AAACGATA,0.459
12,ATTTTAGG,-0.0263
13,ATTAATTG,-0.0275
14,ACGTTCCC,0.0935
15,CCAATAGC,-0.22
16,CTGGACAG,-0.163
17,CACACCTC,-0.19
18,AGCAAGAC,-0.151
19,CGGAGGAC,-0.238
20,AACGGGTA,0.261
21,AAAAGTAG,-0.0874
22,CACCGACA,-0.0632
23,AGAGTGAG,-0.0472
24,ACTTGTCA,-0.235
25,AGACGCGA,0.054

row,Sequence,PBM E-score
1,CTTGCGTA,0.218
2,ACATCCCG,-0.0469
3,ACACGCCG,0.107
4,GTGCCCGA,-0.238
5,AAGTACTG,0.0415
6,AAACACAA,-0.0487
7,AGTGCAAT,-0.0802
8,CCTCGCGC,0.089
9,CTCATAAA,-0.0402
10,ATACCTGA,-0.0527
11,CCTAGACA,-0.257
12,CGATTTGC,-0.0413
13,ATCTAGAG,-0.135
14,ATCTATGA,-0.0565
15,AGGCCCCG,-0.192
16,CAGGTGAC,-0.236
17,CGGTCCTC,-0.0244
18,CGAAACTA,0.197
19,GGTCATGA,0.0317
20,ATGTGTAG,0.0504
21,CTCGTGTA,0.342
22,GCGATCGC,0.204

# Reference: the supplement of paper PMC3334620
